Experimental findings from PMC1885643 (Nucleic Acids Research, 2007) are described below.

The assay concerns the target T1, GST-hRad9 (human, UniProt Q99638 1-391).
T1 sequence (looked up): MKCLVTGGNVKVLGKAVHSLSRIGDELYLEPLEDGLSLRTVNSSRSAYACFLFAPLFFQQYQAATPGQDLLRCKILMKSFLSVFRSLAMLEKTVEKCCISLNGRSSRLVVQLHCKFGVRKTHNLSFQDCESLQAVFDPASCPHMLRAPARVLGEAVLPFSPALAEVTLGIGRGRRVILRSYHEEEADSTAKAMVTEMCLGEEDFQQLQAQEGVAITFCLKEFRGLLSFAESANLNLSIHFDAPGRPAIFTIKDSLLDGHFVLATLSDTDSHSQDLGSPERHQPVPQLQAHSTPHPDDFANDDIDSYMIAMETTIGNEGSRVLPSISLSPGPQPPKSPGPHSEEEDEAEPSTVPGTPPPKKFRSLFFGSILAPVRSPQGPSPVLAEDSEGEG
Nature of the assay: pull-down.

B1: hNEIL1-CΔ40 ([…]) (domain or fragment)
chain: not shown
As to B1, the binding result is given as “binds”.

B2: processed intact hNEIL1 ([…]) (enzyme)
chain: not shown
For the molecule B2, the binding result is “binds”.
